In article PMC12136788:
Some of the results follow.

T1: UNK ZnF1-3 (human, UniProt Q9C0B0 31-174)
T1 sequence: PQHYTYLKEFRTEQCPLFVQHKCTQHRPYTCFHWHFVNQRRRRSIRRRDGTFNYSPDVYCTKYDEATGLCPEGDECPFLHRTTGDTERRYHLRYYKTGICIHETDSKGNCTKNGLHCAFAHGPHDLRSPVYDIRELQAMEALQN

B1: chr1:169100823:169100824:+_ENSG00000143153_ENST00000367816|hu_mus|motif|central (ssRNA)
RNA: GGGAGUUCUACAGUCCGACGAUCGACAGUUUGUUCAAGACUAGUAGGUUUGUGUAUCUUUUUUUAACUUAUUAAAUGGCGGGUGGGAAAGAUUUGUGCUUGUGAUCAGCUCUUAAUUUCAAUUUUUACAUCAAAGCGUCCCUGCAACAGAGGAUUGAGCAUCA
B2: chr9:127920631:127920632:-_ENSG00000119414_ENST00000456642|hu_hu|motif|central (ssRNA)
RNA: GGGAGUUCUACAGUCCGACGAUCAAUACGAUCAGGCCAUUUAGCCUUUAAUGCAAGAAGGUAAGUGAAGGUCUCCAAACGGUAGUAACCUCUGUCUACAAAAUCACCCAUAAAUAUGUAGUUUGUGUCAGGAACCUGACCUCCCAACAGAGGAUUGAGCAUCA
B3: chr4:107013644:107013645:+_ENSMUSG00000057375_ENSMUST00000075693|mus_hu|motif|central (ssRNA)
RNA: GGGAGUUCUACAGUCCGACGAUCCACAUAAUGGUACGUCUUCUCUCCCAGAUGGAUCAAGAAGUUGGAAAGAUUCCCACGGAUUGCGGUGGCAAAGACCAACGUGGCACAUAUCCAAAAGGGGCCAUAGAGAUCUGGAUUGCUCAACAGAGGAUUGAGCAUCA
B4: 225706969_225707089_1027_CDS_ENSG00000154380_ENST00000366843|human|control|control (ssRNA)
RNA: GGGAGUUCUACAGUCCGACGAUCUUCUUGCCUCUCCCGUUCCAGUCUCUCCAGCCUCUCUCGUUCUUGUCUUUCUUGCCUCUCCCGAUCCAGGCGUUCCUGCCGCUCCAGGCGUUCCUGCCGCUCCAGGCGUUCCUGCCGCUCCAACAGAGGAUUGAGCAUCA
B5: chr1:78428520:78428521:-_ENSG00000162613_ENST00000370768|hu_hu|motif|central (ssRNA)
RNA: GGGAGUUCUACAGUCCGACGAUCCCCUAAAGGAUUUACUGGGCCACCAAUCUUUUCUUCUAUGAGUUGCCGAGCAUAGUCGGUCUGUUGUGGAGUGCCACGAAUUGUAAAUAACUUCAUAUUAGGAUCUGCAUUUGGUGGAGGCAACAGAGGAUUGAGCAUCA
B6: 210444459_210489811_375_3pUTR_ENSG00000078018_ENST00000360351|human|control|control (ssRNA)
RNA: GGGAGUUCUACAGUCCGACGAUCUUCUCAAAGGGUUGAUAAUAUUUUCUGGCUUCUUUCUUUUAAUUUUCUGAAUGAGUAGCUCCCAAUCAAUGCUUCCUCGGUUAGAGACAAGCUGAAGAAUCAGCGCAUAUGCAGCAAUACCAACAGAGGAUUGAGCAUCA
B7: chr7:7679991:7679992:-_ENSG00000106399_ENST00000396682|hu_hu|hu_hu_hu_mus_False|58_78 (ssRNA)
RNA: GGGAGUUCUACAGUCCGACGAUCUGGGAUGAAUCUUUUCCAGCUUCCCCACGAAGCAGACAGGCUUGUCGAUAUACUGAGCUAGCAUGCUGGCGUUGACGCGCGCUUUGGGGAGCUGCAUUAUGUCCUCCAUGAUUCUGCCGCCAACAGAGGAUUGAGCAUCA
B8: chr2:48026839:48026840:+_ENSG00000116062_ENST00000540021|hu_hu|hu_hu_hu_mus_False|78_78 (ssRNA)
RNA: GGGAGUUCUACAGUCCGACGAUCAUAGUGAGCCACUAGCGUCCUAAAUCUGGAACAAUGGCGAUCAUCCGAAAACUGGCCGAUGAAAAACUUGCCCAGUGAAGUGUCCACAAAGCAAACACCAUACACACGAGUGUGACCAGACAACAGAGGAUUGAGCAUCA
B9: chr22:32894459:32894460:+_ENSG00000100225_ENST00000397426|hu_hu|FALSE|FALSE (ssRNA)
RNA: GGGAGUUCUACAGUCCGACGAUCACAAAUCAAUCACAUGAAUGACAGCCGGCCAUCAGUUGGCCGACCCCUGCUGGGUCUAAAGGGAAAUCUGUCAUUGGGGCCGCCUCGCCCUGGCAAGAUGGGGUUAGGUCCUGGAAGUGGCAACAGAGGAUUGAGCAUCA
B10: chr11:118025658:118025659:-_ENSMUSG00000017132_ENSMUST00000017276|mus_mus|motif|central (ssRNA)
RNA: GGGAGUUCUACAGUCCGACGAUCUUUGUAUUUUGACAAAUAUUUUUUAAACAAAUACAAAAUAAUCUAAAAGGAGAAAAACGGUGUGUGGAUUAUUUACACCUCUGAUAAAUAGACUGACACUGAGCCAGGUGCUGGCCUGCCCAACAGAGGAUUGAGCAUCA
B11: chr1:168330043:168330044:-_ENSMUSG00000040596_ENSMUST00000169324|mus_hu|FALSE|FALSE (ssRNA)
RNA: GGGAGUUCUACAGUCCGACGAUCCUUGGCAGCCUGGCAGUUGUUGGUACUCUCAGCAUAUUCCACUACCAUCAGCUUGAACCCUGCGUCGUAACUGCGGCGCAUGCCCCGGCUGAACUGAAACUUCCCAGCUAUGUCAUCAGCCAACAGAGGAUUGAGCAUCA
B12: chr11:29608612:29608613:+_ENSMUSG00000020458_ENSMUST00000102843|mus_mus|FALSE|FALSE (ssRNA)
RNA: GGGAGUUCUACAGUCCGACGAUCUUGAGAUUCCAAAGCAGAAACAUUUGGAAGCAAUAAGGGCACCUUAGAUACACUGGACCUACUUUUGGAGAAUUCAUCUGAGACAUGUGCUUCAUCUUUAGGAUAUGUAUUCUUGAAAGACAACAGAGGAUUGAGCAUCA
B13: chr2:120842415:120842416:+_ENSMUSG00000023572_ENSMUST00000060455|mus_mus|FALSE|FALSE (ssRNA)
RNA: GGGAGUUCUACAGUCCGACGAUCCUCUCCUAGCCUGGAGUCUUGGUAACAAUCUCUUCUUAAGGACAGAGGCUGCCUUUCUAUCGAGCAAACACCCUGUCAAAGCUCCACUUCUAAAAGCAGACGUUAAAAAAACUUAAAAAACAACAGAGGAUUGAGCAUCA
B14: chr1:171751117:171751118:+_ENSG00000010165_ENST00000361735|hu_hu|FALSE|FALSE (ssRNA)
RNA: GGGAGUUCUACAGUCCGACGAUCCUUUUAGGUAAGAGGUUCAUGUUCCUACUGCCGAAGCUGCGUUUUCAAGACUCCCCUAUUCCCUGUGAGAUACCAUUUGAGGAGCUUGCCCACCACACGCAGGCUCCGGGACACUGCAGUCAACAGAGGAUUGAGCAUCA

target: T1, UNK ZnF1-3; assay: nsRBNS (natural sequence RNA bind-n-seq); RBNS binding buffer (assumed for nsRBNS): 25 mM Tris pH 7.5, 150 mM KCl, 3 mM MgCl2, 0.01% Triton X-100, 500 ug/ml BSA, 20 U/ml SUPERase-In, 4 C; UNK is unkempt and MSI1 is Musashi-1; names of the RNAs are library labels; protein concentration not given here; high values mean tight binding

Binder | binding signal
B1 | 1.24 enrichment R
B2 | 1 enrichment R
B3 | 1.26 enrichment R
B4 | 0.565 enrichment R
B5 | 1.36 enrichment R
B6 | 1.27 enrichment R
B7 | 0.661 enrichment R
B8 | 1.25 enrichment R
B9 | 1.16 enrichment R
B10 | 1.18 enrichment R
B11 | 0.707 enrichment R
B12 | 0.984 enrichment R
B13 | 0.956 enrichment R
B14 | 0.745 enrichment R
